The values below come from patent publication US20240360189A1 (LUXEMBOURG INSTITUTE OF HEALTH LIH, published 2024).

For assay [1], the target named is T1, HER2 on BT474 breast tumour cells (human, UniProt P04626).
T1 construct: whole, on cells; also called HER2-positive BT474 cells
Description: flow cytometry on mixed CFSE-Daudi and PKH26-BT474 cells, anti-human IgG/AF647. On the technique in general: In flow cytometry, cells or beads pass a laser one at a time.

Assay [2] addresses T2, CD20 on Daudi lymphoma cells (UniProt P11836 1-297, limits assumed).
T2 construct: whole, on cells; also called CD20 antigen; CD20-positive DAUDI cells
T2 sequence (looked up): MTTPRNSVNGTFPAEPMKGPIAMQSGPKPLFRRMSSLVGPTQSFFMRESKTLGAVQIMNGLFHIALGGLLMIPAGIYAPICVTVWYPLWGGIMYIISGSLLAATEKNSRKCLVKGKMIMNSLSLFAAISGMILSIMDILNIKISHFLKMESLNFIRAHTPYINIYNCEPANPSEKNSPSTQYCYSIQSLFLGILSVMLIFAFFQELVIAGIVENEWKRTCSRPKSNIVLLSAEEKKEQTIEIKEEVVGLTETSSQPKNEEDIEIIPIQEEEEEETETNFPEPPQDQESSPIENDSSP
The description is as above.

B1: RTX scFv.C4bp(beta).Fc pseudo-IgG (Fc fusion)
chain: RSQIVLSQSPAILSASPGEKVTMTCRASSSVSYIHWFQQKPGSSPKPWIYATSNLASGVPVRFSGSGSGTSYSLTISRVEAEDAATYYCQQWTSNPPTFGGGTKLEIKGGSSRSSSSGGGGSGGGGQVQLQQPGAELVKPGASVKMSCKASGYTFTSYNMHWVKQTPGRGLEWIGAIYPGNGDTSYNQKFKGKATLTADKSSSTAYMQLSSLTSEDSAVYYCARSTYYGGDWYFNVWGAGTTVTVSASGAGGGGSSGAGGSAGGGGSSGGGGSAGGGGSIQEAPKPECEKALLAFQESKNLCEAMENFMQQLKESGMTMEELKYSLELKKAELKAKLL[human IgG1 Fc omitted here]
notes: also called pseudo-RTX; RTX pseudo-IgG
B1: the binding result in assay [1] is recorded as “no binding (tested: saturating concentrations)”.

B2: monospecific 47D5 VHH anti-HER2 pseudo-IgG (47D5 anti-HER2 VHH.C4bp(beta).Fc) (Fc fusion)
chain: RSKVQLVESGGGLVQPGGSLRLSCAASGSIFGFNDMAWYRQAPGKQRELVALISRVGVTSSADSVKGRFTISRVNAKDTVYLQMNSLKPEDTAVYYCYMDQRLDGSTLAYWGQGTQVTVSSGSGAGGGGSSGAGGSAGGGGSSGGGGSAGGGGSIQEAPKPECEKALLAFQESKNLCEAMENFMQQLKESGMTMEELKYSLELKKAELKAKLL[human IgG1 Fc omitted here]
notes: also called 47D5 pseudo-IgG
For B2, the binding result in assay [1] was “binds”; in assay [2], “no binding (tested: saturating concentrations)”.
